Measured values taken from the supplement of paper PMC7826260.
Some of the results follow. The data describe in vitro nicking of single-stranded DNA by Rep domains (1 h at 37 °C, 3 µM enzyme); the outer parts of the 90-letter strands are left off. A value is the log2 ratio of uncut reads to the pool without enzyme; uncut sequences lie near 0, cut ones below; no hit call is given. The scaling is to total reads; uncut strands gain when others are lost, and binding without cutting may add a little.

Legend:
Assay in all cases: uncleaved DNA left, log2 of reads against the no-enzyme library (log2 ratio); higher = less cleavage (more negative = more Rep cleavage of the k-mer); sequences stand for … in CTCGTCCG…ACCGGAGA
[1] = system: T1, Rep nickase domain of Muscovy duck circovirus
T1 sequence (protein, residues 1-111, tag omitted): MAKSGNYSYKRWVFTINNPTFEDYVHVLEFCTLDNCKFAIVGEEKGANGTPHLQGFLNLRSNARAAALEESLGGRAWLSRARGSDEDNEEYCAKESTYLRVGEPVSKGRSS
Procedure: (§1)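 A pool of 90-nt single-stranded DNAs with seven random bases just before the constant AC of the nick site (name = the seven bases) was cut by 3 µM recombinant His6-SUMO-tagged Rep nickase domain (300 nM DNA, 50 mM HEPES pH 8.0, 50 mM NaCl, 1 mM MnCl2, 1 h, 37 °C, three replicates). Uncut DNA was amplified and sequenced.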

[2] = system: T2, Rep nickase domain of banana bunchy top virus
T2 sequence (protein, residues 1-94, tag omitted): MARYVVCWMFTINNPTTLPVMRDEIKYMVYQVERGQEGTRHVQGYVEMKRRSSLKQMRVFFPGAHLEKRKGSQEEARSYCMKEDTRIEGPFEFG
Procedure: as §1

[3] = system: T3, Rep nickase domain of cabbage leaf curl virus
T3 sequence (protein, residues 1-116, tag omitted): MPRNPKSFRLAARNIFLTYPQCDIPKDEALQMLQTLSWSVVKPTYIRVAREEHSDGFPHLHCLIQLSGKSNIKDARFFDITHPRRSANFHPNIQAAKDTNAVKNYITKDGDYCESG
Procedure: as §1

[4] = system: T4, Rep nickase domain of chickpea chlorotic dwarf virus
T4 sequence (protein, residues 1-124, tag omitted): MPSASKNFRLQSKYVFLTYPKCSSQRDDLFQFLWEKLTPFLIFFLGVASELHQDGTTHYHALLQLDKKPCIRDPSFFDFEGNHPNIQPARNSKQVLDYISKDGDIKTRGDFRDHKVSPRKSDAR
Procedure: as §1

[5] = system: T5, Rep nickase domain of faba bean necrotic yellows virus
T5 sequence (protein, residues 1-98, tag omitted): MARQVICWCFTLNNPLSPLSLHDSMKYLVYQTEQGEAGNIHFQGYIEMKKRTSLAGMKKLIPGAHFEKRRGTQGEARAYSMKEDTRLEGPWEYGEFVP
Procedure: as §1

[6] = system: T6, Rep nickase domain of maize striate mosaic virus
T6 sequence (protein, residues 1-117, tag omitted): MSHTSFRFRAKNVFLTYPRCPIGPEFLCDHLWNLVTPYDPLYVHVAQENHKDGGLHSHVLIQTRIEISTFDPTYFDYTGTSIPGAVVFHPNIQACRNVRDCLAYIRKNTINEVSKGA
Procedure: as §1

[7] = system: T7, Rep nickase domain of porcine circovirus 2
T7 sequence (protein, residues 2-116, tag omitted): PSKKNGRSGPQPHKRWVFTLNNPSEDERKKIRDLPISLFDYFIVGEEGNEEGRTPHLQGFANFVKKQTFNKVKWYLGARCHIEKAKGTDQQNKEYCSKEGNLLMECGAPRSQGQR
Procedure: as §1

[8] = system: T8, Rep nickase domain of tomato golden mosaic virus
T8 sequence (protein, residues 1-124, tag omitted): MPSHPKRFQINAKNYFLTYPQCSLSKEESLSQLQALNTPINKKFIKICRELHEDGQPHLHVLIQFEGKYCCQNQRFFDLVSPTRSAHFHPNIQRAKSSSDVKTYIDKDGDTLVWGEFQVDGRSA
Procedure: as §1

[9] = system: T9, Rep nickase domain of tomato yellow leaf curl virus
T9 sequence (protein, residues 1-136, tag omitted): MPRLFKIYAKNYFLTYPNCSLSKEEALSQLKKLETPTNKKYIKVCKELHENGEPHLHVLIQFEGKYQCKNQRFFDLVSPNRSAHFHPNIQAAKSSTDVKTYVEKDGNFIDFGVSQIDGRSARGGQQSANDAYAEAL
Procedure: as §1

[10] = system: T10, Rep nickase domain of wheat dwarf virus
T10 sequence (protein, residues 1-137, tag omitted): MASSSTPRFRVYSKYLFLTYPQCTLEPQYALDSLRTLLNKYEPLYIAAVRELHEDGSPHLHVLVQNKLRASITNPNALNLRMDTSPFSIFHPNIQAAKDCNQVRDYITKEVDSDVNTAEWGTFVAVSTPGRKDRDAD
Procedure: as §1

Sequence | uncleaved DNA left (log2) [1] | uncleaved DNA left (log2) [2] | uncleaved DNA left (log2) [3] | uncleaved DNA left (log2) [4] | uncleaved DNA left (log2) [5] | uncleaved DNA left (log2) [6] | uncleaved DNA left (log2) [7] | uncleaved DNA left (log2) [8] | uncleaved DNA left (log2) [9] | uncleaved DNA left (log2) [10]
CGGAGTA | 0.0248 | 0.00215 | 0.165 | 0.0278 | 0.0331 | 0.296 | -0.00552 | -0.0339 | -0.0756 | 0.0256
CCGACCA | -0.0368 | 0.0701 | 0.039 | -0.333 | -0.0682 | -0.266 | -0.197 | -0.0307 | -0.0678 | -0.0528
GGTTAGT | -0.474 | -0.0202 | 0.47 | 1.04 | -0.0778 | 1.64 | -1.59 | 0.0323 | 0.0689 | 0.111
TGCGATT | 0.0837 | 0.0288 | -0.0997 | 0.16 | -0.00837 | 0.674 | -0.0445 | -0.00338 | -0.0317 | -0.13
TGCCAGA | -0.00435 | -0.0217 | -0.0487 | -0.258 | -0.0847 | -0.96 | -0.0561 | -0.134 | 0.0244 | -0.0729
ACCGGGT | -0.104 | -0.119 | 0.364 | 0.672 | -0.0244 | 1.34 | 0.182 | -0.072 | -0.128 | 0.0621
CACACTG | -0.0258 | 0.0117 | -0.164 | 0.289 | -0.0092 | 0.409 | -0.0391 | -0.0938 | -0.126 | -0.0178
CTCGAGT | -0.0697 | -0.129 | -0.127 | -0.353 | -0.247 | -0.757 | -0.337 | -0.0378 | -0.0099 | -0.181
TTACCCC | -0.389 | -0.0969 | -0.0532 | -2.15 | 0.0177 | -0.324 | -1.98 | -0.24 | -0.149 | -0.0672
AAAGATG | 0.0664 | 0.136 | 0.436 | 1.54 | 0.152 | 1.54 | 0.25 | 0.188 | -0.145 | 0.0958
ATTCGCT | -0.314 | -0.253 | -0.65 | -1.43 | -0.0507 | -1.39 | -1.07 | -0.123 | -0.0416 | -0.134
GACTCGA | 0.0872 | -0.0588 | -0.0431 | 0.034 | -0.106 | -0.306 | -0.0188 | 0.0344 | 0.00382 | -0.0699
GTTTCAC | 0.0906 | 0.0942 | 0.425 | 0.991 | -0.000649 | 1.79 | 0.151 | 0.0696 | 0.156 | 0.102
AACATGC | -0.0603 | -0.0287 | -0.688 | -0.346 | -0.022 | -1.05 | 0.0796 | -0.104 | 0.0547 | -0.102
GCCACTG | -0.0865 | 0.0211 | 0.016 | 0.494 | -0.109 | 1.22 | 0.0617 | -0.053 | -0.187 | 0.0218
GCACTAC | -0.0754 | 0.0373 | -0.165 | -1.08 | -0.025 | -0.178 | -0.063 | -0.0568 | -0.0834 | -0.0215
CATGCAA | -0.14 | -0.0645 | -0.646 | -0.69 | -0.0336 | -1.27 | -0.00698 | -0.0929 | 0.0931 | 0.0628
TGTATGT | 0.0235 | 0.0283 | 0.2 | 0.0802 | -0.00947 | -0.0259 | -0.967 | -0.0031 | 0.092 | 0.0591
TGTCAGA | 0.00501 | 0.0462 | 0.133 | 0.173 | 0.096 | -0.32 | 0.112 | 0.0603 | 0.185 | 0.0587
CGGGCTA | 0.0825 | 0.0332 | 0.555 | 1.2 | 0.0707 | 1.82 | 0.163 | 0.0538 | -0.0186 | 0.0849
ACTCGCT | 0.172 | 0.0779 | -0.469 | -1.18 | 0.157 | -1.01 | -0.362 | 0.0865 | 0.182 | 0.0425
GCATAAG | -0.122 | -0.0461 | -0.747 | -0.0492 | -0.0524 | -0.939 | 0.0619 | 0.00947 | 0.0389 | -0.085
AGGCTCT | -0.121 | -0.0619 | 0.26 | -0.39 | -0.00642 | 0.745 | -0.0482 | 0.0296 | -0.0866 | 0.083
ACATTGC | 0.025 | -0.0159 | -0.105 | 1.06 | -0.00521 | 0.506 | 0.127 | -0.171 | 0.148 | -0.144
GAACGAT | 0.0322 | 0.0148 | 0.234 | 0.261 | 0.0529 | 1.39 | 0.101 | 0.051 | -0.0457 | 0.0305
AAAGACA | 0.00357 | -0.0184 | 0.0375 | -1.58 | -0.000626 | 0.58 | 0.0486 | 0.0143 | -0.134 | 0.0499
CAAGGGT | 0.114 | 0.0429 | 0.259 | 1.53 | 0.0567 | 1.88 | 0.198 | 0.0482 | -0.125 | 0.117
ATGGCAA | 0.125 | -0.0638 | 0.0611 | 0.174 | -0.058 | -0.338 | 0.125 | 0.0687 | 0.0944 | -0.0044
CTCCGTG | -0.143 | -0.0378 | -0.556 | -0.722 | -0.13 | -1.23 | 0.0268 | -0.0549 | 0.0831 | -0.184
AGGGGCG | 0.0248 | -0.0347 | -0.673 | -0.0246 | -0.0144 | -0.539 | 0.121 | 0.032 | -0.007 | -0.201
